Assay results from the RNAGym collection of RNA variant scans (doi:10.1093/nar/gkz1192).
Read counts are not given, so values of variants with three or more changes are uncertain.

B1: CPEB3 Ribozyme (parent)
chain: UAACAGGGGGCCACAGCAGAAGCGUUCACGUCGCAGCCCCUGUCAGAUUCUGGUGAAUCUGCGAAUUCUGCUGUAUAUCUC

Variants of: B1
Assay: self-cleavage, relative activity (ratio to wild type); higher = more cleavage; in vitro, sequencing
How it was run: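 CPEB3 self-cleaving ribozyme mutant libraries were made by rounds of error-prone PCR, barcoded, and transcribed in vitro with T7 RNA polymerase for 5 hours at 37°C. Cleavage occurred during transcription and a 15 min DNase I step before EDTA stop. RNAs were reverse transcribed with template switching and Illumina-sequenced, with DNA sequencing mapping barcodes to variants. Relative activity is the variant's cleaved/total read fraction divided by wild type's (minimum 5 reads), averaged across three batches.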

| Variant | self-cleavage |
| --- | --- |
| UAACAGGGAGCCACAGCAGAAGCGUUCACGUCGCAGCCACCGUCAGAUUCUGGUGAAUCUGCGAAUACUGCUGUAUACCUC [G9A C39A U41C U67A U78C] | 0.06 |
| UAACAGGGAGCCACAGCAGAAGCGUUCACGUCGCAGCCCAUGCCAGAUUCUGGUGAAUCUGCGAAUUCUGCUGUAUAUCUC [G9A C40A U43C] | 0.35 |
| UAACAGGGAGCCACAGCAGAAGCGUUCACGUCGCAGCCCGUGCCAGUUUCUGGUGAAUCUGCGAACUCUGCUGUAUACCUC [G9A C40G U43C A47U U66C U78C] | 0.03 |
| UAACAGGGACCCACAGCUGAAGCGUUCACUUCGCAGCCCCUGUCAGAUUCAGGUGAAUCUGCGAAUUCUGCUGUAUAUCUC [G9A G10C A18U G30U U51A] | 0.16 |
| UAACAGGGACCCACAGCAGAAGCGUUCACGUCGCAGCCCCUGUCAGUUUCUGGUGAAUCUGCGAAUUCUGCCGUAUAUCUC [G9A G10C A47U U72C] | 0.05 |
| UAACAGGGAGCCACAGCAAAAGCGUUCACGUCGCAGCCCCUGUCAGGUUCUGGUGAAUCUGCGAAAUCUGCUGUAUAUCUC [G9A G19A A47G U66A] | 0.05 |
| UAACAGGGAGCCACAGCACUAGCGUUCACGUCGCUGCCCCUGUCAGAUUCUGGUGAAUCUGCGAAUUCCGCUGUAUGUCAC [G9A G19C A20U A35U U69C A77G U80A] | 0.03 |
| UAACAGGGAGCCACAGCAUAAGCGUUCACGUCGCACCCCCUGUCAGAUUCUGGUGAAUCUGCGAAUUCUGCUGUAUAUCUC [G9A G19U G36C] | 0.14 |
| UAACAGGGAGCCACAGCAUAAGCGUUCACGCCGCAGCCCCUGUCAGAUUCUGGUGACUCUGCGAAUUCUGCUGUAUAUCCC [G9A G19U U31C A57C U80C] | 0.05 |
| UAACAGGGAGCCACAGCAGAAGCAUUCACGUCGCAGCCCCUGUCAGAUUCUGGUGGAUCUGCGAGUUCUGCUGUAUAUCUC [G9A G24A A56G A65G] | 0.09 |
| UAACAGGGAGCCACAGCAGAAGCAUUCACGUCGCAGCCCCUGUCAGACUCUGGUGAAUCUGAGAUUUCAGCCGUAUAUCUC [G9A G24A U48C C62A A65U U69A U72C] | 0.03 |
| UAACAGGGAGCCACAGCAGAAGCAUUCACGUCGCAGCCCCUGUCAGAUUCAGGUGAGUCUGCGAAUUCUGCUGUAUAUCUC [G9A G24A U51A A57G] | 0.07 |
| UAACAGGGAGCCACAGCAGAAGCGUUCACUUCGCAGCCCCUGUCAGAUUCUGGUGAAUCUGCGCAUGCUGCUGUAUAUCUC [G9A G30U A64C U67G] | 0.05 |
| UAACAGGGAGCCACAGCAGAAGCGUUCACGUCGCAGCCCCUAUCAGAUUCUGGUGAAUCUGCGAAUUCUGCCGUAUAUCUC [G9A G42A U72C] | 0.42 |
| UAACAGGGAGCCACAGCAGAAGCGUUCACGUCGCAGCCCCUGUCAGAUUCUGAUGAAUCUGCGAAUUCCGCUGUAUAUCUC [G9A G53A U69C] | 0.19 |
| UAACAGGGAGCCACAGCAGAAGCGCUCACGUCGCAGCCCCUGUCAGAUUCUGGUGAGUCUGCGAACUCUGCUGUAUGUCUC [G9A U25C A57G U66C A77G] | 0.12 |
| UAACAGGGAGCCACAGCAGAAGCGCUCAUGUCGCAGCCCCUGUCAGAUUCUGGUGAAUCUGCGAAUUCUGCUGUAUAUCAC [G9A U25C C29U U80A] | 0.27 |

| Variant | self-cleavage |
| --- | --- |
| UAACAGGGAGCCACAGCAGAAGCGCUCACGUCGCAGCUCCUGUCAGAUUCUGGUGAAUCUGCGAAUUCUGCCGUAUGUCUC [G9A U25C C38U U72C A77G] | 0.05 |
| UAACAGGGAGCCACAGCAGAAGCGCUCACGUCGCAGCCCCUAUCAGAAUCUGGUGAAUCAGCGAAUUCAGCUGUAUAUCUC [G9A U25C G42A U48A U60A U69A] | 0.04 |
| UAACAGGGAGCCACAGCAGAAGCGCUCACGUCGCAGCCCCUGUCAGAUUCUGGAGAAUCUGCGAAUCCUGCUGUAUAUCUC [G9A U25C U54A U67C] | 0.15 |
| UAACAGGGAGCCACAGCAGAAGCGUACACGUCGCAGCCCCUGUCCGAUUCUGGUGAAUCUGCGAAUUCUGCUGUAUAUCUC [G9A U26A A45C] | 0.17 |
| UAACAGGGAGCCACAGCAGAAGCGUACACGUCGCAGCCCCUGUCAGAUUCUGGUGAAUCUGCGGAUUCUGCUGUAUAUCUC [G9A U26A A64G] | 0.05 |
| UAACAGGGAGCCACAGCAGAAGCGUACACGUCGCAGCCCCCGUCAGAUUCUGGUGAAUCUGCGAAUUCUGCUGUAUAUCUC [G9A U26A U41C] | 0.34 |
| UAACAGGGAGCCACAGCAGAAGCGUACACGUCGCAGCCCCUGUCAGAUUCUGGUGAAUCUGCGAAUCCUGCUGUAUAACUC [G9A U26A U67C U78A] | 0.05 |
| UAACAGGGAGCCACAGCAGAAGCGUCCACGUCGCAGCCCCUGUCAGAUUCUGGUGAAUCUGCAAAUUCUGCAGUAUAUCUC [G9A U26C G63A U72A] | 0.07 |
| UAACAGGGAGCCACAGCAGAAGCGUCCACGUCGCAGCCCCUGUCAGAUCCUGGUGAAUCUGCGAAUUCUGCUGCAUAUCUC [G9A U26C U49C U74C] | 0.09 |
| UAACAGGGAGCCACAGCAGAAGCGUCCACGUCGCAGCCCCUGUCAGAUUCCCGUGAAUCUGCGAUUUCUGCUGUAUAUCUC [G9A U26C U51C G52C A65U] | 0.05 |
| UAACAGGGAGCCACAGCAGAAGCGUCCACGUCGCAGCCCCUGUCAGAUUCUGGUGAAUCUGCGAACUCUGCUGUAUAUCUC [G9A U26C U66C] | 0.31 |
| UAACAGGGAGCCACAGCAGAAGCGUCCACGUCGCAGCCCCUGUCAGAUUCUGGUGAAUCUGCGAAUUCUGCCGUACAUCCC [G9A U26C U72C U76C U80C] | 0.06 |
| UAACAGGGAGCCACAGCAGAAGCGUUCACGACGCAGCCCCUGUCAGAGUCUGGCGAAUCUGCGUAUUCUGCUGUACAUCUC [G9A U31A U48G U54C A64U U76C] | 0.12 |
| UAACAGGGAGCCACAGCAGAAGCGUUCACGCCGCAGCCCCUGUCUGAUUCUGGUGAAUCUGCGAAUUCUGCUGUAUAUCUC [G9A U31C A45U] | 0.19 |
| UAACAGGGAGCCACAGCAGAAGCGUUCACGCCGCAGCCCCUGUCAGAUUCUGGUGAGUCUGCGAAUUCUGCCGUAUAUCUC [G9A U31C A57G U72C] | 0.09 |
| UAACAGGGAGCCACAGCAGAAGCGUUCACGCCGUAGCCCCCGUCAGAUUCUGGUGAAUCUGCGGAUUCUGCUGUAUAUCUC [G9A U31C C34U U41C A64G] | 0.13 |
| UAACAGGGAGCCACAGCAGAAGCGUUCACGCCGCAGCCCCAGUCAGAUUCUGGUGAAUCUGCGAAUUCCGCUGUAUACCUC [G9A U31C U41A U69C U78C] | 0.04 |
